# Counter-ions that a name gives are not always drawn. The list shows a part of the results. Repeats are few or missing, and single values can be far off.
# Test system: HCT116-GFP
# Assay: HCT116-GFP viability (GFP intensity) relative to untreated control, monoculture; higher = less cancer cell killing
# Conditions: culture: HCT116-GFP monoculture; 10 µM; 72 h
# 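Note: viability estimated indirectly by image-based GFP quantification with live-cell imaging of the constitutively GFP-expressing human colorectal cancer line, no immune cells added.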
row,Structure (SMILES),HCT116-GFP viability
1,O=C1CCC(N2C(=O)c3ccccc3C2=O)C(=O)N1 (centres undefined) [Thalidomide],90.6%
2,O=C1OC(CN2CCOCC2)CN1/N=C/c1ccc([N+](=O)[O-])o1 (centres undefined) [Furaltadone hydrochloride],93.8%
3,CNCCCN1c2ccccc2CCc2ccccc21 [Desipramine hydrochloride],84%
4,C[n+]1ccccc1/C=N/O [Pralidoxime chloride],102%
5,CCC(C)n1ncn(-c2ccc(N3CCN(c4ccc(OCC5COC(Cn6cncn6)(c6ccc(Cl)cc6Cl)O5)cc4)CC3)cc2)c1=O (centres undefined) [Itraconazole],59.9%
6,Cc1cccc(Nc2ccccc2C(=O)O)c1C [Mefenamic acid],85.2%
7,O=C(O)CCNC(=O)c1ccc(/N=N/c2ccc(O)c(C(=O)O)c2)cc1 [Balsalazide Sodium],121%
8,CC(CN(C)C)CN1c2ccccc2Sc2ccccc21 (centres undefined) [Trimeprazine tartrate],75.3%
9,CC1(C)[C@@H](OC(=O)CCC(=O)O)CC[C@]2(C)[C@H]3C(=O)C=C4[C@@H]5C[C@@](C)(C(=O)O)CC[C@]5(C)CC[C@@]4(C)[C@]3(C)CC[C@@H]12 [Carbenoxolone disodium salt],103%
10,N=C(N)NCCN1CCCCCCC1 [Guanethidine sulfate],112%
11,C#C[C@]1(O)CC[C@H]2[C@@H]3CCC4=CC(=O)CC[C@@H]4[C@H]3CC[C@@]21CC [Norgestrel-(-)-D],104%
12,C=CCOC(Cn1ccnc1)c1ccc(Cl)cc1Cl (centres undefined) [Enilconazole],102%
13,CC(=O)OCC(=O)[C@@]1(OC(C)=O)[C@@H](C)C[C@H]2[C@@H]3C[C@H](F)C4=CC(=O)C=C[C@]4(C)[C@@]3(F)[C@@H](O)C[C@@]21C [Diflorasone Diacetate],108%
14,CC[C@@H](CO)NCCN[C@@H](CC)CO [Ethambutol dihydrochloride],96.9%
15,CC(CN(C)C)C(C)(O)Cc1ccc(Cl)cc1 (centres undefined) [Clobutinol hydrochloride],104%
16,C[C@]1(Cn2ccnn2)[C@H](C(=O)O)N2C(=O)C[C@H]2S1(=O)=O [Tazobactam],113%
17,CCCOc1ccc(C(=O)OCCN(CC)CC)cc1N [Proparacaine hydrochloride],111%
18,C=CCSCC1Nc2cc(Cl)c(S(N)(=O)=O)cc2S(=O)(=O)N1 (centres undefined) [Althiazide],119%
19,c1ccc(CN(CC2=NCCN2)c2ccccc2)cc1 [Antazoline hydrochloride],99.6%
20,CN(C)CC/C=C1/c2ccccc2COc2ccc(CC(=O)O)cc21 [Olopatadine hydrochloride],99.5%
21,CC(C(=O)O)c1ccc(C(=O)c2ccccc2)s1 (centres undefined) [Tiaprofenic acid],93.7%
22,CC(=O)N(CC(O)CN(C(C)=O)c1c(I)c(C(=O)NCC(O)CO)c(I)c(C(=O)NCC(O)CO)c1I)c1c(I)c(C(=O)NCC(O)CO)c(I)c(C(=O)NCC(O)CO)c1I (centres undefined) [Iodixanol],94.6%
23,COc1c(N2CCNC(C)C2)c(F)cc2c(=O)c(C(=O)O)cn(C3CC3)c12 (centres undefined) [Gatifloxacin],93.2%
24,O=C(c1ccccc1)c1ccc2n1CCC2C(=O)O (centres undefined) [Ketorolac tromethamine],103%
25,CCOC(=O)[C@@](C)(N)Cc1ccc(O)c(O)c1 [Methyldopate hydrochloride],48.5%

row,Structure (SMILES),HCT116-GFP viability
1,CN1Cc2c(N)cccc2C(c2ccccc2)C1 (centres undefined) [Nomifensine maleate],107%
2,CC(C)(O)c1ccccc1CC[C@@H](SCC1(CC(=O)O)CC1)c1cccc(/C=C/c2ccc3ccc(Cl)cc3n2)c1 [Montelukast],91.2%
3,"c1ccc(CNc2ncnc3nc[nH]c23)cc1 [Aminopurine, 6-benzyl]",93.9%
4,NC1CCN(c2nc3c(cc2F)c(=O)c(C(=O)O)cn3-c2ccc(F)cc2F)C1 (centres undefined) [Tosufloxacin hydrochloride],65.6%
5,COC(=O)Nc1nc2cc([S+]([O-])c3ccccc3)ccc2[nH]1 (centres undefined) [Oxfendazol],55.9%
6,Nc1ccn([C@@H]2CS[C@H](CO)O2)c(=O)n1 [Lamivudine],93.3%
7,Cc1cc(N)c2ccccc2[n+]1CCCCCCCCCC[n+]1c(C)cc(N)c2ccccc21 [Dequalinium dichloride],35.2%
8,COc1ccccc1OCC(O)COC(N)=O (centres undefined) [Methocarbamol],98.1%
9,CO/N=C(\C(=O)N[C@@H]1C(=O)N2C(C(=O)OC(C)OC(C)=O)=C(COC(N)=O)CS[C@H]12)c1ccco1 (some centres undefined) [Cefuroxime axetil],97.8%
10,COc1ccc(CC2c3cc(OC)c(OC)cc3CC[N+]2(C)CCC(=O)OCCCCCOC(=O)CC[N+]2(C)CCc3cc(OC)c(OC)cc3C2Cc2ccc(OC)c(OC)c2)cc1OC (centres undefined) [Atracurium besylate],88%
11,CC(=O)[C@H]1CC[C@H]2[C@@H]3CC=C4C[C@@H](O)CC[C@]4(C)[C@H]3CC[C@]12C [Pregnenolone],97.2%
12,CCN(CCO)CCCC(C)Nc1ccnc2cc(Cl)ccc12 (centres undefined) [Hydroxychloroquine sulfate],93.7%
13,CCCCN1CCCCC1C(=O)Nc1c(C)cccc1C (centres undefined) [Bupivacaine hydrochloride],93.9%
14,CCOC(=O)NNc1nncc2ccccc12 [Todralazine hydrochloride],97.1%
15,CC(C)(C)c1ccc(C(O)CCCN2CCC(C(O)(c3ccccc3)c3ccccc3)CC2)cc1 (centres undefined) [Terfenadine],1.21%
16,CC(COc1ccccc1)NC(C)C(O)c1ccc(O)cc1 (centres undefined) [Isoxsuprine hydrochloride],114%
17,Nc1ccc(S(=O)(=O)Nc2ccccn2)cc1 [Sulfapyridine],110%
18,COc1ccnc(C[S+]([O-])c2nc3cc(OC(F)F)ccc3[nH]2)c1OC (centres undefined) [Pantoprazole sodium],105%
19,Nc1ccn([C@@H]2O[C@H](CO)[C@@H](O)[C@@H]2O)c(=O)n1 [Cytarabine],15.6%
20,C[C@@H]1C[C@H]2[C@@H]3C[C@H](F)C4=CC(=O)C=C[C@]4(C)[C@@]3(F)[C@@H](O)C[C@]2(C)[C@@]1(O)C(=O)COC(=O)C(C)(C)C [Flumethasone pivalate],92.3%
21,CCOc1ccccc1OC(c1ccccc1)C1CNCCO1 (centres undefined) [Reboxetine mesylate],86.4%
22,CN(C)CCCN1c2ccccc2Sc2ccc(Cl)cc21 [Chlorpromazine hydrochloride],20.8%
23,CN(C)c1ccc(O)c2c1C[C@H]1C[C@H]3[C@H](N(C)C)C(O)=C(C(N)=O)C(=O)[C@@]3(O)C(O)=C1C2=O [Minocycline hydrochloride],94.8%
24,Cc1ccsc1/C=C/C1=NCCCN1C [Morantel tartrate],108%
25,Nc1nc(NC2CC2)c2ncn([C@H]3C=C[C@@H](CO)C3)c2n1 [Abacavir Sulfate],84.7%

row,Structure (SMILES),HCT116-GFP viability
1,CN(Cc1cnc2nc(N)nc(N)c2n1)c1ccc(C(=O)N[C@@H](CCC(=O)O)C(=O)O)cc1 [Methotrexate],30.2%
2,"CN(Cc1cnc2nc(N)nc(N)c2n1)c1ccc(C(=O)N[C@@H](CCC(=O)O)C(=O)O)cc1 (racemic) [Amethopterin (R,S)]",30.8%
3,O=C(COc1ccc(Cl)cc1)N1CCN(Cc2ccc3c(c2)OCO3)CC1 [Fipexide hydrochloride],94.3%
4,CNC(C)CCC=C(C)C (centres undefined) [Isometheptene mucate],96%
5,CCN(CC)CCNc1ccc(CO)c2sc3ccccc3c(=O)c12 [Hycanthone],12.8%
6,OC(CCCN1CCCCC1)(c1ccccc1)c1ccccc1 [Diphenidol hydrochloride],89.6%
7,CCN(CC)CCOC(=O)C(c1ccccc1)c1ccccc1 [Adiphenine hydrochloride],98.3%
8,CCOC(=O)c1ccc(N)cc1 [Benzocaine],87.1%
9,C[C@]12CC[C@@H]3c4ccc(OS(=O)(=O)O)cc4CC[C@H]3[C@@H]1CCC2=O [Estropipate],103%
10,COc1cccc(OC)c1C(=O)N[C@@H]1C(=O)N2[C@@H]1SC(C)(C)[C@@H]2C(=O)O [Methicillin sodium],95.8%
11,Cc1ccc(S(=O)(=O)NC(=O)NN2CCCCCC2)cc1 [Tolazamide],101%
12,CCCCC1(COC(=O)CCC(=O)O)C(=O)N(c2ccccc2)N(c2ccccc2)C1=O [Suxibuzone],117%
13,COc1cc(NC(C)CCCN)c2ncccc2c1 (centres undefined) [Primaquine diphosphate],5.59%
14,CCCCNc1c(C(=O)OCC)c(C)nc2c1cnn2CC [Tracazolate hydrochloride],89%
15,COc1cc(-c2ccc(=O)[nH]n2)ccc1OC(F)F [Zardaverine],108%
16,CSc1ccc2c(c1)N(CCC1CCCCN1C)c1ccccc1S2 (centres undefined) [Thioridazine hydrochloride],44.6%
17,CC1=C(/C=C/C(C)=C/C=C/C(C)=C\C(=O)O)C(C)(C)CCC1 [Isotretinoin],99.7%
18,CC/C(=C(/CC)c1ccc(O)cc1)c1ccc(O)cc1 [Diethylstilbestrol],98.6%
19,NC(N)=Nc1nc(CSCC/C(N)=N/S(N)(=O)=O)cs1 [Famotidine],100%
20,Cc1cc(-c2ccccc2)nnc1NCCN1CCOCC1 [Minaprine dihydrochloride],98%
21,CN(C)[C@@H]1C(O)=C(C(N)=O)C(=O)[C@@]2(O)C(O)=C3C(=O)c4c(O)cccc4[C@@](C)(O)[C@H]3[C@H](O)[C@@H]12 [Oxytetracycline dihydrate],95.2%
22,C[C@@](Cc1ccc(O)c(O)c1)(NN)C(=O)O [Carbidopa],89.5%
23,CCOc1nc2cccc(C(=O)O)c2n1Cc1ccc(-c2ccccc2-c2nnn[nH]2)cc1 [Candesartan],86.4%
24,Nc1ncnc2c1ncn2[C@@H]1O[C@H](CO)[C@@H](O)[C@@H]1O [Vidarabine],107%

# From the supplement of paper PMC9938546
